The target in this experiment is T1, TEM1 on SJSA-1 and A673 cells (UniProt Q9HCU0 18-757, limits assumed).
T1 sequence (looked up): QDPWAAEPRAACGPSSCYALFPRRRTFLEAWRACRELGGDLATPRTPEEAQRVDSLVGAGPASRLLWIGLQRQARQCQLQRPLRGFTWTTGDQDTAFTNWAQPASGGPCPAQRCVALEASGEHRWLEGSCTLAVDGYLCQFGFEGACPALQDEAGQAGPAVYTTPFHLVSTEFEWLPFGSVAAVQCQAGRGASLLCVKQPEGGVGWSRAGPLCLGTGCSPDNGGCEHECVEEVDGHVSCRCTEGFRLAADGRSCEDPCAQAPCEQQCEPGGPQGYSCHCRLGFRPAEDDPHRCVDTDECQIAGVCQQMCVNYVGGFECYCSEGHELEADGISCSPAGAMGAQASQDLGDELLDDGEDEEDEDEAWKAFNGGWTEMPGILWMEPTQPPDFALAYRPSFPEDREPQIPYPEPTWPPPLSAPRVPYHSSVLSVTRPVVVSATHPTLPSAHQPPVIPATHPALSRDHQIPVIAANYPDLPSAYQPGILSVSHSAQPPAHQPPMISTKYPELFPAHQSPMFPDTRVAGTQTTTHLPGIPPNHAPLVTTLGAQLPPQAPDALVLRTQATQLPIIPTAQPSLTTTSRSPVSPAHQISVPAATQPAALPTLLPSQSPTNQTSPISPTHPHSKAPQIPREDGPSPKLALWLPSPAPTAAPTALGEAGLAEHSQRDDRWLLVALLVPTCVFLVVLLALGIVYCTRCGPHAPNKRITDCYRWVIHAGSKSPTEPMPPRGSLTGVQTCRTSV
The experiment can be described thus: cell-based or functional assay.

B1: antiTEM1 A114N-AO-MC-VC-PABC-MMAE (antibody, human IgG1, kappa)
heavy: QVQLQESAPGLVKPSETLSLTCTVSGGSIRSYYWSWIRQPPGKGLEYIGYIYYTGSAIYNPSLQSRVTISVDTSKNQFSLKLNSVTAADTAVYYCAREGVRGASGYYYYGMDVWGQGTTVTVSS[here human IgG1 constant region without letters]
light: not shown
modifications: aminooxy-MC-VC-PABC-MMAE on galactose aldehyde of the glycans (engineered N114, Kabat), DAR 1.72
Regarding B1, the “IC50, cell proliferation assay, A673-DMEM-RPMI cells” value was found to be 2.2 µg/mL; the “IC50, cell proliferation assay, A673-RPMI cells” value came to 3.2 µg/mL; the “IC50, cell proliferation assay, SJSA-1 cells” value turned out to be 3 µg/mL.
